Reference: the antibiotic and cytotoxicity screens of Wong et al. (2023)
Some of the results follow.

What follows are molecules tested on HSkMC (human skeletal muscle cells) (assay: cytotoxicity call (relative viability < 0.9)). Conditions: 10 µM.

| Compound | cytotoxicity call |
| --- | --- |
| CC[C@@H](N)C12CC3CC(CC(C3)C1)C2 | inactive |
| C[C@H]1CN([C@@H](C)CO)S(=O)(=O)c2ccc(-c3cncnc3)cc2O[C@H]1CN(C)C(=O)Cc1ccncc1 | inactive |
| Cl.NCc1ccc(S(N)(=O)=O)cc1 | inactive |
| C[C@@H]1CCCCO[C@@H](CN(C)C(=O)Nc2ccc3c(c2)OCO3)[C@H](C)CN([C@H](C)CO)C(=O)c2cc(NC(=O)c3ccccc3)ccc2O1 | inactive |
| C[C@@H]1CCCCO[C@@H](CN(C)C(=O)CCCN(C)C)[C@@H](C)CN([C@@H](C)CO)C(=O)c2cc(NC(=O)Nc3ccc(C(F)(F)F)cc3)ccc2O1 | inactive |
| Cc1ccc(S(=O)(=O)N2C[C@H](O)COC[C@H]3O[C@@H](CC(=O)N[C@H]4CCN(Cc5ccccc5)C4)CC[C@@H]32)cc1 | inactive |
| CC(C)(C)NC[C@@H](O)CSc1nc(-c2ccc(C(N)=O)s2)cs1 | inactive |
| COCC#Cc1ccc2c(c1)O[C@H](CN(C)S(=O)(=O)c1ccc(F)cc1)[C@H](C)CN([C@H](C)CO)S2(=O)=O | inactive |
| C[C@@H]1CCCCO[C@@H](CN(C)S(=O)(=O)c2ccccc2)[C@@H](C)CN([C@@H](C)CO)C(=O)c2cc(NS(=O)(=O)c3ccc(Cl)cc3)ccc2O1 | inactive |
| C[C@@H]1CN([C@H](C)CO)C(=O)c2cc(NS(=O)(=O)c3ccc(Cl)cc3)ccc2O[C@@H](C)CCCCO[C@H]1CN(C)C(=O)Nc1ccc2c(c1)OCO2 | inactive |
| C[C@H]1CN([C@@H](C)CO)C(=O)c2cccc(NC(=O)C3CCOCC3)c2O[C@H]1CN(C)Cc1ccc(C(=O)O)cc1 | inactive |
| COc1ccc(NC(=O)Nc2cccc3c2O[C@H](CN(C)S(C)(=O)=O)[C@H](C)CN([C@H](C)CO)C3=O)cc1 | inactive |
| CO[C@H]1CN(C)C(=O)c2cc(NC(=O)C3CC3)ccc2OC[C@H](C)N(C(=O)Cc2ccccn2)C[C@H]1C | inactive |
| COC(=O)C[C@H]1CC[C@H]2[C@H](COc3ccc(NS(=O)(=O)c4ccccc4Cl)cc3C(=O)N2C)O1 | inactive |
| NCC1CCOCC1 | inactive |
| Nc1nonc1C(=O)OCC(=O)c1ccccc1 | inactive |
| Nc1ncnc2c1nc(Br)n2[C@H]1O[C@H]2COP(=O)(O)O[C@@H]2[C@@H]1O | inactive |
| CC(C)CC#Cc1ccc2c(c1)O[C@@H](CN(C)Cc1cncnc1)[C@H](C)CN([C@@H](C)CO)S2(=O)=O | inactive |
| C1CC1c1noc(C2CNC2)n1 | inactive |
| COc1ccc(NC(=O)Nc2ccc3c(c2)C(=O)N([C@@H](C)CO)C[C@@H](C)[C@H](CN(C)C(=O)c2ccccc2)OCCCC[C@H](C)O3)cc1 | inactive |

| Compound | cytotoxicity call |
| --- | --- |
| COc1ccccc1-c1ccc2c(c1)O[C@H](CN(C)C(=O)c1ccncc1)[C@H](C)CN([C@H](C)CO)S2(=O)=O | inactive |
| C[C@H](CO)N1C[C@H](C)[C@H](CN(C)C(=O)C2CCCCC2)Oc2cc(C#CC3CC3)ccc2S1(=O)=O | inactive |
| NCC[C@H]1CC[C@@H](NC(=O)C2CCCC2)[C@H](CO)O1 | inactive |
| C[C@@H]1CN([C@H](C)CO)C(=O)c2c(c3ccccc3n2C)-c2ccccc2CO[C@H]1CN(C)Cc1ccccc1 | active |
| COc1cc2c(cc1OC)CN(C(=O)[C@@H]1[C@H]3C(=O)O[C@H](c4ccccc4)[C@H](c4ccccc4)N3[C@H](c3ccc(O)cc3)[C@@]13C(=O)Nc1ccc(C#CCCO)cc13)CC2 | inactive |
| CC1(C)SCCN(S(=O)(=O)c2ccc(OCC#CCO)cc2)[C@H]1C(=O)NO | inactive |
| COc1ccc(CN(C)C[C@@H]2Oc3c(NC(=O)Nc4ccc(C(F)(F)F)cc4)cccc3C(=O)N([C@@H](C)CO)C[C@H]2C)cc1 | active |
| Cc1noc(C)c1S(=O)(=O)N(C)C[C@@H]1Oc2ccc(NS(=O)(=O)c3ccccc3)cc2CC(=O)N([C@@H](C)CO)C[C@H]1C | inactive |
| COc1ccc(S(=O)(=O)N[C@H]2C=C[C@@H](CC(=O)NCCc3ccncc3)O[C@H]2CO)cc1 | inactive |
| O=C(NCCN1CCOCC1)[C@@H]1c2ccccc2C(=O)N(Cc2cc(C(F)(F)F)cc(C(F)(F)F)c2)[C@H]1c1ccc(CO)cc1 | inactive |
| Cc1ccc(S(=O)(=O)N(C)C[C@@H]2OCCCC[C@H](C)Oc3ccc(NC(=O)c4ccccc4)cc3C(=O)N([C@@H](C)CO)C[C@H]2C)cc1 | inactive |
| CCC[C@@H](O)C#Cc1cnc2c(c1)C(=O)N([C@H](C)CO)C[C@H](C)[C@H](CN(C)C(=O)Nc1ccccc1)O2 | inactive |
| C[C@H]1CN([C@@H](C)CO)C(=O)c2cccc(NC(=O)CCCCCC(=O)Nc3ccccc3N)c2O[C@H]1CN(C)C(=O)Nc1cccc2ccccc12 | inactive |
| CCCC#Cc1ccc2c(c1)O[C@H](CN(C)C(=O)c1cnccn1)[C@@H](C)CN([C@@H](C)CO)S2(=O)=O | inactive |
| C[C@@H]1[C@@H]([Si](C)(C)F)[C@H](CC(=O)N(CCO)Cc2ccccc2)O[C@@]12C(=O)N(c1ccccc1)c1ccccc12 | inactive |
| C[C@@H]1CCCCO[C@H](CN(C)C(=O)Nc2cccc3ccccc23)[C@H](C)CN([C@@H](C)CO)C(=O)c2cc(NS(=O)(=O)c3ccc(Cl)cc3)ccc2O1 | inactive |
| Cc1ccc(S(=O)(=O)Nc2ccc3c(c2)C(=O)N([C@@H](C)CO)C[C@@H](C)[C@@H](CN(C)C(=O)Cc2ccccc2)OCCCC[C@H](C)O3)cc1 | inactive |
| COCC#Cc1ccc2c(c1)O[C@H](CN(C)S(=O)(=O)c1cccc(F)c1)[C@@H](C)CN([C@@H](C)CO)S2(=O)=O | inactive |
| COC(=O)Cc1cc(=O)n(-c2ccccc2)[nH]1 | inactive |
| CNC(=O)C(=O)Nc1cc(Cl)ccc1C#N | inactive |
